Assay results published in the supplement of paper PMC11876631.
± gives the standard deviation of the averaged measurements. Laboratory Escherichia coli strains with one amino-acid change in an essential protein, pooled on minimal glucose agar with carbenicillin or gentamicin at twice the control MIC (plus kanamycin and chloramphenicol for the plasmids), 48 h. Fold change of barcode share against drug-free plates; higher = less susceptible. Active = above 20 in both replicates (the paper's putatively resistant). '<' = one read or none on drug, '>' = one read or none on a drug-free plate. Shares are relative, so most strains fall below 1 when a few take over. Listed are strains with at least 15 reads on both drug-free plates, and hits; most hits rest on fewer reference reads. Replicate rank correlation about 0.5. Edits are read from barcodes.

B1: ispD L103D (protein)
chain: MATTHLDVCAVVPAAGFGRRMQTECPKQYLSIGNQTILEHSVHALLAHPRVKRVVIAISPGDSRFAQLPLANHPQITVVDGGDERADSVLAGLKAAGDAQWVDVHDAARPCLHQDDLARLLALSETSRTGGILAAPVRDTMKRAEPGKNAIAHTVDRNGLWHALTPQFFPRELLHDCLTRALNEGATITDEASALEYCGFHPQLVEGRADNIKVTRPEDLALAEFYLTRTIHQENT
B2: ispD V104A (protein)
chain: MATTHLDVCAVVPAAGFGRRMQTECPKQYLSIGNQTILEHSVHALLAHPRVKRVVIAISPGDSRFAQLPLANHPQITVVDGGDERADSVLAGLKAAGDAQWVLAHDAARPCLHQDDLARLLALSETSRTGGILAAPVRDTMKRAEPGKNAIAHTVDRNGLWHALTPQFFPRELLHDCLTRALNEGATITDEASALEYCGFHPQLVEGRADNIKVTRPEDLALAEFYLTRTIHQENT
B3: ispD V104W (protein)
chain: MATTHLDVCAVVPAAGFGRRMQTECPKQYLSIGNQTILEHSVHALLAHPRVKRVVIAISPGDSRFAQLPLANHPQITVVDGGDERADSVLAGLKAAGDAQWVLWHDAARPCLHQDDLARLLALSETSRTGGILAAPVRDTMKRAEPGKNAIAHTVDRNGLWHALTPQFFPRELLHDCLTRALNEGATITDEASALEYCGFHPQLVEGRADNIKVTRPEDLALAEFYLTRTIHQENT
B4: ispD V104D (protein)
chain: MATTHLDVCAVVPAAGFGRRMQTECPKQYLSIGNQTILEHSVHALLAHPRVKRVVIAISPGDSRFAQLPLANHPQITVVDGGDERADSVLAGLKAAGDAQWVLDHDAARPCLHQDDLARLLALSETSRTGGILAAPVRDTMKRAEPGKNAIAHTVDRNGLWHALTPQFFPRELLHDCLTRALNEGATITDEASALEYCGFHPQLVEGRADNIKVTRPEDLALAEFYLTRTIHQENT
B5: ispE V146A (protein)
chain: MRTQWPSPAKLNLFLYITGQRADGYHTLQTLFQFLDYGDTISIELRDDGDIRLLTPVEGVEHEDNLIVRAARLLMKTAADSGRLPTGSGANISIDKRLPMGGGLGGGSSNAATVLVALNHLWQCGLSMDELAEMGLTLGADVPVFARGHAAFAEGVGEILTPVDPPEKWYLVAHPGVSIPTPVIFKDPELPRNTPKRSIETLLKCEFSNDCEVIARKRFREVDAVLSWLLEYAPSRLTGTGACVFAEFDTESEARQVLEQAPEWLNGFVAKGANLSPLHRAML
B6: ispE V146W (protein)
chain: MRTQWPSPAKLNLFLYITGQRADGYHTLQTLFQFLDYGDTISIELRDDGDIRLLTPVEGVEHEDNLIVRAARLLMKTAADSGRLPTGSGANISIDKRLPMGGGLGGGSSNAATVLVALNHLWQCGLSMDELAEMGLTLGADVPVFWRGHAAFAEGVGEILTPVDPPEKWYLVAHPGVSIPTPVIFKDPELPRNTPKRSIETLLKCEFSNDCEVIARKRFREVDAVLSWLLEYAPSRLTGTGACVFAEFDTESEARQVLEQAPEWLNGFVAKGANLSPLHRAML
B7: ispE V146Q (protein)
chain: MRTQWPSPAKLNLFLYITGQRADGYHTLQTLFQFLDYGDTISIELRDDGDIRLLTPVEGVEHEDNLIVRAARLLMKTAADSGRLPTGSGANISIDKRLPMGGGLGGGSSNAATVLVALNHLWQCGLSMDELAEMGLTLGADVPVFQRGHAAFAEGVGEILTPVDPPEKWYLVAHPGVSIPTPVIFKDPELPRNTPKRSIETLLKCEFSNDCEVIARKRFREVDAVLSWLLEYAPSRLTGTGACVFAEFDTESEARQVLEQAPEWLNGFVAKGANLSPLHRAML
B8: ispE L115A (protein)
chain: MRTQWPSPAKLNLFLYITGQRADGYHTLQTLFQFLDYGDTISIELRDDGDIRLLTPVEGVEHEDNLIVRAARLLMKTAADSGRLPTGSGANISIDKRLPMGGGLGGGSSNAATVAVALNHLWQCGLSMDELAEMGLTLGADVPVFVRGHAAFAEGVGEILTPVDPPEKWYLVAHPGVSIPTPVIFKDPELPRNTPKRSIETLLKCEFSNDCEVIARKRFREVDAVLSWLLEYAPSRLTGTGACVFAEFDTESEARQVLEQAPEWLNGFVAKGANLSPLHRAML
B9: ispE L115W (protein)
chain: MRTQWPSPAKLNLFLYITGQRADGYHTLQTLFQFLDYGDTISIELRDDGDIRLLTPVEGVEHEDNLIVRAARLLMKTAADSGRLPTGSGANISIDKRLPMGGGLGGGSSNAATVWVALNHLWQCGLSMDELAEMGLTLGADVPVFVRGHAAFAEGVGEILTPVDPPEKWYLVAHPGVSIPTPVIFKDPELPRNTPKRSIETLLKCEFSNDCEVIARKRFREVDAVLSWLLEYAPSRLTGTGACVFAEFDTESEARQVLEQAPEWLNGFVAKGANLSPLHRAML
B10: ispE L115Q (protein)
chain: MRTQWPSPAKLNLFLYITGQRADGYHTLQTLFQFLDYGDTISIELRDDGDIRLLTPVEGVEHEDNLIVRAARLLMKTAADSGRLPTGSGANISIDKRLPMGGGLGGGSSNAATVQVALNHLWQCGLSMDELAEMGLTLGADVPVFVRGHAAFAEGVGEILTPVDPPEKWYLVAHPGVSIPTPVIFKDPELPRNTPKRSIETLLKCEFSNDCEVIARKRFREVDAVLSWLLEYAPSRLTGTGACVFAEFDTESEARQVLEQAPEWLNGFVAKGANLSPLHRAML
B11: ispE L115P (protein)
chain: MRTQWPSPAKLNLFLYITGQRADGYHTLQTLFQFLDYGDTISIELRDDGDIRLLTPVEGVEHEDNLIVRAARLLMKTAADSGRLPTGSGANISIDKRLPMGGGLGGGSSNAATVPVALNHLWQCGLSMDELAEMGLTLGADVPVFVRGHAAFAEGVGEILTPVDPPEKWYLVAHPGVSIPTPVIFKDPELPRNTPKRSIETLLKCEFSNDCEVIARKRFREVDAVLSWLLEYAPSRLTGTGACVFAEFDTESEARQVLEQAPEWLNGFVAKGANLSPLHRAML
B12: ispE F145A (protein)
chain: MRTQWPSPAKLNLFLYITGQRADGYHTLQTLFQFLDYGDTISIELRDDGDIRLLTPVEGVEHEDNLIVRAARLLMKTAADSGRLPTGSGANISIDKRLPMGGGLGGGSSNAATVLVALNHLWQCGLSMDELAEMGLTLGADVPVAVRGHAAFAEGVGEILTPVDPPEKWYLVAHPGVSIPTPVIFKDPELPRNTPKRSIETLLKCEFSNDCEVIARKRFREVDAVLSWLLEYAPSRLTGTGACVFAEFDTESEARQVLEQAPEWLNGFVAKGANLSPLHRAML
B13: ispE F145Q (protein)
chain: MRTQWPSPAKLNLFLYITGQRADGYHTLQTLFQFLDYGDTISIELRDDGDIRLLTPVEGVEHEDNLIVRAARLLMKTAADSGRLPTGSGANISIDKRLPMGGGLGGGSSNAATVLVALNHLWQCGLSMDELAEMGLTLGADVPVQVRGHAAFAEGVGEILTPVDPPEKWYLVAHPGVSIPTPVIFKDPELPRNTPKRSIETLLKCEFSNDCEVIARKRFREVDAVLSWLLEYAPSRLTGTGACVFAEFDTESEARQVLEQAPEWLNGFVAKGANLSPLHRAML
B14: ispE F145P (protein)
chain: MRTQWPSPAKLNLFLYITGQRADGYHTLQTLFQFLDYGDTISIELRDDGDIRLLTPVEGVEHEDNLIVRAARLLMKTAADSGRLPTGSGANISIDKRLPMGGGLGGGSSNAATVLVALNHLWQCGLSMDELAEMGLTLGADVPVPVRGHAAFAEGVGEILTPVDPPEKWYLVAHPGVSIPTPVIFKDPELPRNTPKRSIETLLKCEFSNDCEVIARKRFREVDAVLSWLLEYAPSRLTGTGACVFAEFDTESEARQVLEQAPEWLNGFVAKGANLSPLHRAML
B15: ispE L229A (protein)
chain: MRTQWPSPAKLNLFLYITGQRADGYHTLQTLFQFLDYGDTISIELRDDGDIRLLTPVEGVEHEDNLIVRAARLLMKTAADSGRLPTGSGANISIDKRLPMGGGLGGGSSNAATVLVALNHLWQCGLSMDELAEMGLTLGADVPVFVRGHAAFAEGVGEILTPVDPPEKWYLVAHPGVSIPTPVIFKDPELPRNTPKRSIETLLKCEFSNDCEVIARKRFREVDAVLSWALEYAPSRLTGTGACVFAEFDTESEARQVLEQAPEWLNGFVAKGANLSPLHRAML
B16: ispE L229W (protein)
chain: MRTQWPSPAKLNLFLYITGQRADGYHTLQTLFQFLDYGDTISIELRDDGDIRLLTPVEGVEHEDNLIVRAARLLMKTAADSGRLPTGSGANISIDKRLPMGGGLGGGSSNAATVLVALNHLWQCGLSMDELAEMGLTLGADVPVFVRGHAAFAEGVGEILTPVDPPEKWYLVAHPGVSIPTPVIFKDPELPRNTPKRSIETLLKCEFSNDCEVIARKRFREVDAVLSWWLEYAPSRLTGTGACVFAEFDTESEARQVLEQAPEWLNGFVAKGANLSPLHRAML

molecular target: Escherichia coli (laboratory strain); assay: barcode share on antibiotic plates over drug-free plates; higher = less susceptible; details: antibiotic: carbenicillin; 2× MIC (3.1 µg/mL)
Experimental: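 A pool of E. coli strains, each edited to carry one amino-acid change in an essential protein, was grown for 48 h on minimal glucose agar with or without antibiotic; strain barcodes were sequenced; mean of two replicates.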

Protein | fold change of barcode share
B1 | 0.288 ± 0.18
B2 | 0.223 ± 0.062
B3 | 0.179 ± 0.11
B4 | 0.38 ± 0.33
B5 | 0.364 ± 0.051
B6 | 1.04 ± 0.32
B7 | 0.486 ± 0.064
B8 | 0.538 ± 0.33
B9 | 0.631 ± 0.13
B10 | 0.303 ± 0.0051
B11 | 0.2677 ± 0.0015
B12 | 0.383 ± 0.034
B13 | 0.488 ± 0.11
B14 | 0.509 ± 0.12
B15 | 0.382 ± 0.01
B16 | 0.518 ± 0.039

same assay, conditions: antibiotic: gentamicin; 2× MIC (MIC 0.45 µg/mL)

Protein | fold change of barcode share
B1 | < 0.00843
B2 | < 0.00833
B3 | 0.0198 ± 0.0041
B4 | < 0.00964
B5 | 0.00415 ± 0.0046
B6 | 3620 [active]
B7 | 0.0307 ± 0.03
B8 | 0.0028 ± 0.00033
B9 | 0.0133 ± 0.006
B10 | 0.00664 ± 0.00048
B11 | 5.85 ± 0.5
B12 | 0.00914 ± 0.0032
B13 | 0.0124 ± 0.011
B14 | 7.85 ± 7.8
B15 | 0.00586 ± 0.0026
B16 | 0.0104 ± 0.0087
